To fix the notation:
B1: LINE1-mini (parent)
chain: GGCAGAGCUCAACACAGCGUGGCAAAGUGGCUGUGGCUAGACUGCC

These results are taken from the RNAGym collection of RNA variant scans (doi:10.7554/elife.90254).

Read counts are not given, so values of variants with three or more changes are uncertain.

In the data set the parent is B1. In words: self-cleavage, relative activity (ratio to wild type); higher = more cleavage; in vitro, sequencing; the parent is a self-cleaving ribozyme.
Consider C18U G19U C31G A39G, for which the self-cleavage is 0.02.
To C18U G19U U20A G22A G40C G44U belongs 0.03; to C18A C23G G40A C45A, 0.01.
As for C18A A25G C31U, the self-cleavage turned out to be 0.04.
For G17U G44C C45U, the self-cleavage was found to be 0.09.
With G17U G21U U34G the figure was 0.03; with G19A G22U G44C, 0.58.
G19A C37U G40C: the self-cleavage stood at 0.06.
With C18A G36C A41C the figure was 0.02.
Consider G17U C23G A39U, for which the self-cleavage came to 0.07.
With G17U G29U U34C G36C G44C the figure was 0.01; with C18G G19A G27U, 0.12.
In the case of C18G A26G G33C, the self-cleavage worked out at 0.01.
To C18U G21C C23A C37U G44C belongs 0.06; to G19A A41U U43C, 0.1; to C18A U28G C31A U34G, 0.03.
To C18A G29U G30A C42G belongs 0.29; to C18A A26G U38G, 0.
With G17U G30A C31A U32C G35A C45A C46U the figure was 0.01; with C18U U28A G30A C31A G33A, 0.02.
With C18U G22U A26C U43G, the self-cleavage was 0.29.
Regarding C18A G19C A24G U28C C37A, the self-cleavage is 0.02.
Turning to C18G G30U C31U U32A, the self-cleavage was determined as 0.03.
For G17U U38G G40U, the self-cleavage was 0.05.
For the variant G19A G21C U28G, the self-cleavage is 0.47.
With C18G U34A A41G U43C the figure was 0; with C18U G19A G27U G40U, 0.01; with C18A G22A C23U A26G G35A, 0.01.
For C18G A26U U43A, the self-cleavage was 0.04.
C18U A25G C37U U38C A39U A41G: the self-cleavage stood at 0.03.
In the case of C18U A25G G27A U32C C45U, the self-cleavage came to 0.01.
In the case of C18G G22A A24U C42A, the self-cleavage was found to be 0.23.
With G19A A24C A39C the figure was 0.27; with C18U A25U A39G U43C, 0.01.
With G17U C18U G33U G36U the figure was 0.03; with C18A A24U G30C, 0.37.
Turning to C18U G33A C45G, the self-cleavage was determined as 0.03.
To G19A C23U G27U U32G belongs 0.72.
With C18G G22C A39G the figure was 0.11; with C18A C23G G30C G35U C37A, 0; with C18A G21A U34C A39G, 0.05.
For C18A G27C G30C C31G, the self-cleavage worked out at 0.07.
Take C18A U20G A41C U43C G44U: the self-cleavage was 0.05.
With C18U C23G A26G C42A the figure was 0.04; with G17U C23U C46G, 0.05.
With C18A A26G C42U the figure was 0.04; with C18U C23U A26U U28A G35C, 0.02.
With C18G G22U A41U the figure was 0.39; with C18A G21C C31A, 0.07; with C18U A26C U28A, 0.08.
Regarding G19A G29A U34A A39G, the self-cleavage was found to be 0.09.
Turning to C18G U20C A24U, the self-cleavage came to 0.01.
Consider C18A G40U C46A, for which the self-cleavage turned out to be 0.03.
Take C18A G19A G21A G22U A24U U34A: the self-cleavage turned out to be 0.04.
To G17U A25G G40U A41C belongs 0.07; to C18A G33A U43C, 0.
To G17U C18G A24U C37U C45A belongs 0.02; to G17U U28A C31A G35A, 0.12; to G19A C31A G33A G35A, 0.14.
To C18A G21C U43C belongs 0.16; to C18A G29C U34G, 0.05.
Regarding C18G G21U G36C, the self-cleavage came to 0.09.
In the case of G17U C18G G21U U38A G44U, the self-cleavage was 0.16.
As for C18U A24U G27U, the self-cleavage is 1.2.
As to G17U A26C G35C G40C, the self-cleavage stood at 0.07.
With C18G G35C C45U the figure was 0.07; with C18A U28A G29U C45A, 0.29; with G17U G35U C42A, 0.03.
As to C18A A24C G27U, the self-cleavage worked out at 0.
With C18G C23G C31G G33U, the self-cleavage came to 0.02.
For the variant G17U C23G U28C G29U G30A, the self-cleavage amounted to 0.17.
Turning to C18G G27C G29C, the self-cleavage is 0.63.
In the case of C18U U20C G22C U34C G44U, the self-cleavage is 0.08.
To G17U G27C A41U belongs 0.02; to C18G A26C U38A A41G, 0.04.
To G17U C18A C45U belongs 0.15; to G19A G22C A24G, 0.3; to C18A G19U U43C C46A, 0.11.
For the variant G17U C18A G27U G40U, the self-cleavage was determined as 0.12.
For the variant C18A G21A G40A, the self-cleavage came out at 0.02.
In the case of C18A U32G C42A C45U, the self-cleavage is 0.01.
With C18A G36U A41U G44U the figure was 0.07.
Regarding C18U A26G G35A C45U, the self-cleavage turned out to be 0.03.
To G17U G33C U34G belongs 0.03; to C18G C45A C46G, 0.02; to C18U A24U U34G G36A C45U, 0.03.
For the variant C18U G30C A39C, the self-cleavage came out at 0.02.
With C18U U20A U32C C46U the figure was 0.04; with G17U G19C G44U, 0.04; with C18G G30U G35C C46G, 0.01.
Turning to C18A G30U G40A, the self-cleavage was 0.11.
As to C18A A39G C42G, the self-cleavage was 0.07.
To C18U U20G G33A G40C belongs 0.02.
To C18G C37A A39G belongs 0.01.
Regarding C18U G36U G40C, the self-cleavage came to 0.11.
With C18U A26G U28G G30A C31A, the self-cleavage is 0.26.
Regarding C18A U34G U38G, the self-cleavage came to 0.03.
To C18U G22A A26U belongs 0.51; to C18A G22C G36C, 0.11; to G17U G19A U38A, 0.99.
As to C18A C23A G35C A39U, the self-cleavage came to 0.
Regarding G19A C23U G27A G29U C31U, the self-cleavage stood at 0.77.
Turning to C18A A26G U28G C31U U34G, the self-cleavage worked out at 0.
To G17U A25C C46G belongs 0.06; to G17U C18U U20C, 0.1; to G17U A25G U34A, 0.03.
With C18U G21U G36A the figure was 0.3.
With G17U G29U C37U A39U the figure was 0.14.
Take C18A G19U C45U: the self-cleavage was 0.09.
Turning to C18U C23G G35C, the self-cleavage was 0.02.
With C18U G19C G22U C42U G44A the figure was 0.02.
With G19A A24U A39U the figure was 0.78; with C18U U20A C37G, 0.01; with C18U A24C U34A G36C, 0.05.
With C18A A26C C45G the figure was 0.18; with C18A G21C G36U, 0.11; with G19A G22C G27U U28A, 0.62.
C18A U28C G33C: the self-cleavage was found to be 0.02.
On to C18U A25U C31G C45A, for which the self-cleavage turned out to be 0.02.
As to C18G A24G C42A, the self-cleavage was 0.06.
With G17U A41C U43G, the self-cleavage was 0.05.
As for C18U C23U A39G U43C, the self-cleavage worked out at 0.04.
To C18U G22U C23U C31A G33U belongs 0.02; to G19A G29U G30C, 0.46.
For C18U U20C A24G U28G G29A, the self-cleavage is 0.38.
With C18U C37G A39U U43C the figure was 0.04.
Take C18U G19A C42G: the self-cleavage came out at 0.04.
To C18G C23U G36A C42G belongs 0.02; to G17U G21U G27C, 0.19.
As for C18U A41G C45U, the self-cleavage came out at 0.01.
With G19A G22U A26C the figure was 1.99; with G19A G21U G30U, 0.74; with G17U G19C U32C A41G, 0.07.
For the variant C18U G27A G35U G40C, the self-cleavage was 0.
Take C18U A24U C37U A39G: the self-cleavage was found to be 0.03.
Regarding C18G G22C U38G C46A, the self-cleavage was found to be 0.02.
With G17U G19U U28A U34A C46U the figure was 0.01; with C18A G29C C37G, 0.01; with G19A C31U U32A G33A, 0.03.
Take G19A G21A A26G U38C: the self-cleavage came out at 0.63.
As for G19A G27C G30U U34A G36C, the self-cleavage was 0.08.
To C18U C23G U34G belongs 0.05; to C18A G22A G33A U34A, 0.04.
As for G19A G29A C31G A41U U43A, the self-cleavage was 0.06.
C18U G19U G21C: the self-cleavage was determined as 0.51.
G17U G30U A39U: the self-cleavage is 0.07.
With C18U G36C G40U the figure was 0.03; with G19A G30A G36C A41U U43A, 0.02; with G19A G29A C31U G35U, 0.04.
To C18U A25U G33A C37U A39U belongs 0.16; to C18A A25U U32A, 0.04.
To C18U G27A G36U belongs 0.04; to C18U U20G C31A U38C U43C, 0.
Consider C18U C23A A39U C46A, for which the self-cleavage worked out at 0.35.
With G17U C18A U34G the figure was 0.01; with C18U U20C G30A U38A, 1.11; with G17U C31A G35C, 0.02.
With G17U C37A A39C C45A the figure was 0.06.
To C18G U32C G44A belongs 0.04.
For the variant C18U C23U U38C, the self-cleavage was 2.16.
To C18A G21C G35A U43A belongs 0.01; to G17U C23A C46A, 0.06.
Turning to G19A G29U C42U, the self-cleavage amounted to 0.37.
With G19A G22U C42U the figure was 1.51.
For the variant C18G G19U A39C, the self-cleavage is 0.27.
With G17U G27A G33U C46A the figure was 0.01; with G17U C18G C31A G40U, 0.13.
